# PubChem BioAssay AID686979 (National Center for Advancing Translational Sciences (NCATS), 2013)
# About 50,000 (12%) of roughly 420,000 compounds were called active. The shares of active, inactive and inconclusive entries below differ from those in the screen. Calls come from the whole dose curve; as a rule, active = well fitted inhibition curve with a large enough effect; inconclusive = small, poorly fitted or top-dose-only effect; inactive = flat fitted curve, though single readings scatter. No potency is given beside an inconclusive call; the fits are too rough. Where a structure was tested more than once in an assay, its records may differ in their call.
# Experiment: qHTS for Inhibitors of human tyrosyl-DNA phosphodiesterase 1 (TDP1): qHTS in cells in presence of CPT; note: nearly all actives have a fitted effect of over 55% in size
# Conditions: chicken DT40 Tdp1-/-;hTDP1 cells + 20 nM CPT, ATP luminescence, 48 h; activity change, negative = growth inhibition: at 46.2 µM (top of the series) unless noted
# In short: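 Chicken DT40 Tdp1-/- cells complemented with human TDP1, 400 cells/well, exposed to compounds plus 20 nM camptothecin for at least 48 h at 37 C; viability read as ATP content by CellTiter-Glo luminescence.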
# % is set by controls: 0 for no effect and ±100 for the full control effect; potency is the fitted concentration of half-maximal effect; tags give direction and shape of the fitted curve.
SMILES,Potency,"activity change, negative = growth inhibition"
CCNC(=O)CSc1nc2ccccc2c(=O)n1-c1cccc(OC)c1,inactive,–
CC(C)C(=O)OCc1cn(-c2ccc(Cl)c(Cl)c2)nn1,"inconclusive [inhibitor, single point]",–
Cc1ccc(C(=O)CSc2nc(-c3ccccc3)nc3c2CCCC3)c(C)c1,"inconclusive [inhibitor, single point]",–
CCCCC(=O)NNC(=S)NC(=O)CCC,"inconclusive [inhibitor, single point]",–
Cc1c(C)n(C(=O)CN2CCN(c3ccccn3)CC2)c2ccccc12,"inconclusive [inhibitor, single point]",–
COC(=O)[C@@]12CCCCN1[C@H](c1ccc(-c3ccc(F)cc3)cc1)[C@@H]1C(=O)N(C)C(=O)[C@@H]12,active: 20.6 µM,–
Cc1cc(C(=O)Nc2cccc3ccccc23)oc1C,"inconclusive [inhibitor, single point]",–
COc1ccc(-c2nnc(SCC(=O)N(Cc3ccccc3)C(C)(C)C)o2)cc1OC,active: 23.1 µM,–
O=C(NCCN1CCOCC1)c1cc(Sc2cccc(Cl)c2)nc2ccccc12,inactive,–
O=NN(C(=O)NCc1cccnc1)C1CCCCC1,inactive,–
Cc1cc(C(=O)N2CCCC(C(=O)c3cccc(C(F)(F)F)c3)C2)n[nH]1 (stereo unspecified),"inconclusive [inhibitor, single point]",–
CC(C(=O)Nc1ccc(O)c(C(=O)O)c1)N1C(=O)/C(=C/c2cccs2)SC1=S (stereo unspecified),"inconclusive [inhibitor, single point]",–
O=S(=O)(c1ccccc1)c1nnn2c1nc(NC1CCCCC1)c1sccc12,inactive,–
CCN(CC)S(=O)(=O)c1ccc(N2CCOCC2)c(NC(=O)c2ccc3c(c2)OCCO3)c1,active: 16.4 µM,–
COc1ccc(OC)c(NC(=O)c2cccnc2)c1,inactive,–
CC(NC(=O)c1c(N)[nH]c(C(=O)c2ccccc2)c1-c1ccccc1Br)c1cccc2ccccc12 (stereo unspecified),"inconclusive [inhibitor, single point]",–
Cc1ccc(-c2csc(NC(=O)C3CC(=O)N(c4ccc5c(c4)OCCO5)C3)n2)o1 (stereo unspecified),"inconclusive [inhibitor, single point]",–
Cn1c(CCNS(=O)(=O)c2ccccc2)nc2cc([N+](=O)[O-])ccc21,"inconclusive [inhibitor, single point]",–
CCCCn1cc(S(=O)(=O)c2ccc(OC)cc2)c(=O)c2cc(CC)ccc21,"inconclusive [inhibitor, single point]",–
CCc1ccc(NC(=O)CN(c2ccc(C)cc2)S(=O)(=O)c2cccs2)cc1,inactive,–
NC1=NC(=O)/C(=C/c2cn(Cc3ccccc3)c3ccccc23)S1,–,inconclusive: -30.8% [inhibitor]
CN(Cc1cccnc1)C(=O)c1cc(S(=O)(=O)Nc2ccccc2F)ccc1Cl,"inconclusive [inhibitor, single point]",–
COc1ccc(-c2cc(C)no2)cc1S(=O)(=O)N1CCc2ccccc21,"inconclusive [inhibitor, single point]",–
COc1ccc(/C(C)=N/NC(=O)CNC(=O)c2cccnc2)cc1,inactive,–

SMILES,Potency,"activity change, negative = growth inhibition"
COCCCN(C(=O)c1ccccc1)c1nc(-c2ccc(OC)cc2)cs1,active: 18.4 µM,–
C/C(=N/NC(=O)c1cccc(C)c1)c1c(O)cc(C)oc1=O,"inconclusive [inhibitor, single point]",–
Cn1c(=O)c2c(SCC(=O)Nc3ccccc3C(F)(F)F)nc(C3CCCC3)nc2n(C)c1=O,"inconclusive [inhibitor, partial curve, poor fit]",–
Cc1ccc(Cl)cc1NC(=O)Nc1nnc(N(C)Cc2ccccc2)s1,active: 20.6 µM,–
C/C(=N\NC(=O)CC1N=C(Cc2ccccc2)NNC1=O)c1ccc(Br)cc1 (stereo unspecified),"inconclusive [inhibitor, single point]",–
COc1ccccc1CNC(=O)C(=O)NCC1OCCN1S(=O)(=O)c1ccc(Br)cc1 (stereo unspecified),"inconclusive [inhibitor, single point]",–
CCN(CC1COc2ccccc2O1)S(=O)(=O)c1ccc(C)cc1 (stereo unspecified),"inconclusive [inhibitor, partial curve, poor fit]",–
CCCNC(=O)C[C@@H]1C[C@@H]2c3cc(NS(=O)(=O)c4ccc(OC)cc4)ccc3O[C@@H]2[C@@H](CO)O1,"inconclusive [inhibitor, partial curve, poor fit]",–
CC(=O)N/C(=C/c1ccccc1)c1ccncc1,active: 7.94 µM,–
O=C1[C@@H]2CSCN2C(=O)CN1Cc1c(F)cccc1Cl,inactive,–
Cc1ccc(S(=O)(=O)/N=C2/NC(=O)/C(=C/c3ccccn3)S2)cc1,"inconclusive [inhibitor, single point]",–
Cc1nn(C)c(C(=O)NNC(=S)NC2CCCCC2)c1Cl,"inconclusive [inhibitor, single point]",–
COC(=O)c1ccccc1NC(=O)CSc1nncn1-c1cccnc1,inactive,–
Oc1ccc(-c2cn3ccccc3n2)cc1O,active: 25.9 µM,–
CC1=Nc2cc(C(=O)NCCCOC(C)C)ccc2Sc2ccccc21,active: 16.4 µM,–
Cc1ccc(CN(C(=O)c2ccccc2)c2ccccn2)o1,"inconclusive [inhibitor, partial curve]",–
Cc1ccccc1NC(=O)Cc1nc(COC(=O)c2ncc(Cl)c(Cl)c2Cl)cs1,"inconclusive [inhibitor, single point]",–
CN(Cc1ccccc1)c1nccn2ccnc12,"inconclusive [inhibitor, single point]",–
Cc1ccc(Nc2nc(N)nc(CN3CCN(Cc4ccc5c(c4)OCO5)CC3)n2)cc1Cl,"inconclusive [inhibitor, single point]",–
COC(=O)CCCC1=CC2=C(c3ccccc3)C(=O)C(C)(OC(=O)C3CCCC3)C(=O)C2=CN1C(CO)CO (stereo unspecified),"inconclusive [inhibitor, single point]",–
O=C(NCCN1CCCC1)c1ccc2c(c1)N(Cc1ccccc1)C(=O)c1ccccc1S2(=O)=O,inactive,–
CC(=O)N1CCc2nc3sc(C(=O)c4ccc(F)cc4)c(N)c3c(C(F)(F)F)c2C1,"inconclusive [inhibitor, single point]",–
CCOc1cc(C(=O)Nc2ccccc2F)cc(Br)c1OCC,active: 20.6 µM,–
Cc1ccc(NC(=O)c2nc(S(C)(=O)=O)ncc2N(Cc2ccco2)Cc2cccs2)c(C)c1,"inconclusive [inhibitor, single point]",–

SMILES,Potency,"activity change, negative = growth inhibition"
COc1ccccc1NC(=O)c1cc[n+](C)cc1,inactive,–
Nc1ccc(S(=O)(=O)N2CCCC2)cc1Cl,inactive,–
Cc1ccc(OCC(=O)Nc2nnc(S(=O)(=O)N3c4ccccc4CC3C)s2)cc1 (stereo unspecified),"inconclusive [inhibitor, full curve, poor fit]",–
CCOc1ccc(NS(=O)(=O)c2ccc3c(c2)n(C)c(=O)n3C)cc1,"inconclusive [inhibitor, single point]",–
CCc1ccc(NC(=O)C(=O)NCC(c2cccnc2)N2CCN(c3ccc(F)cc3)CC2)cc1 (stereo unspecified),"inconclusive [inhibitor, partial curve]",–
COc1ccc(-c2c(-c3ccc(OC)c(C)c3O)n[nH]c2C)cc1,"inconclusive [inhibitor, single point]",–
CCNc1nc(NC(C)C)nc(N(n2cnnc2)S(=O)(=O)c2ccc(C)cc2)n1,inactive,–
Cc1ccc(OCCC(=O)NNC(=O)c2cc(C)oc2C)cc1,inactive,–
CCc1cc(C(=O)N2CCN(S(=O)(=O)c3cc(C)ccc3C)CC2)sc1C,"inconclusive [inhibitor, single point]",–
CC(=O)Nc1ccc(NC(=O)C(C)OC(=O)c2ccccc2C(=O)c2ccc(Cl)c([N+](=O)[O-])c2)cc1 (stereo unspecified),"inconclusive [inhibitor, single point]",–
C[N+]1(CC(=O)c2ccc(Oc3ccccc3)cc2)CCOCC1,"inconclusive [inhibitor, single point]",–
COc1cc(C(=O)OC(C)C(=O)NC2CCCCC2C)c([N+](=O)[O-])cc1OC (stereo unspecified),"inconclusive [inhibitor, single point]",–
CCN(CC)C(=O)CSC1=C(C#N)C(c2ccco2)C(C(=O)OCCOC)=C(C)N1 (stereo unspecified),active: 20.6 µM,–
CCn1c(=O)c2c(nc3n2CC(C)CN3CCc2ccccc2)n(C)c1=O (stereo unspecified),active: 20.6 µM,–
CC(=O)NCCNc1nc(-c2ccc(C(=O)N(C)C)cc2)nc2ccccc12,"inconclusive [inhibitor, single point]",–
Cc1ccc(OCCC(=O)OC(C)C(=O)Nc2c(C)n(C)n(-c3ccccc3)c2=O)cc1 (stereo unspecified),inactive,–
CCOc1ccccc1C(=O)NCC(=O)NCCSc1ccc(Br)cc1,"inconclusive [inhibitor, single point]",–
N#CC1=C2SCC(O)(c3ccccc3)N2C(=O)CC1c1ccccc1F (stereo unspecified),active: 13 µM,–
Cc1ccc(C(=O)N/N=C2/NC(=O)CC(C(=O)Nc3ccccc3)S2)cc1 (stereo unspecified),inactive,–
CCN(CC)c1ccc(/C=N/NC(=O)C(O)c2ccccc2)cc1 (stereo unspecified),inactive,–
O=c1oc2ccccc2cc1-c1cn(-c2ccccc2)c(=S)[nH]1,active: 2.59 µM,–
Cc1ccc(CCP(=O)(O)CN2CCOCC2)cn1,inactive,–
CCOc1ccc(Cc2c(C)[nH]c3ccc(C(=O)O)cc3c2=S)cc1,inactive,–
